Assay results taken from the supplement of paper PMC3334620.
Whole data set: some 33,000 sequences, median “E-score (-0.5 to 0.5)” near -0.035, cut for the highest 2% near 0.35. Some of the results follow.

molecular target: T1, Pdr3 (UniProt P33200); experiment: PBM E-score (8-mer binding enrichment) (E-score (-0.5 to 0.5)); higher = stronger / more preferred TF binding; most listed sequences are background and not binding sites; conditions: protein concentration: 200 nM; construct: GST-full length
T1 sequence: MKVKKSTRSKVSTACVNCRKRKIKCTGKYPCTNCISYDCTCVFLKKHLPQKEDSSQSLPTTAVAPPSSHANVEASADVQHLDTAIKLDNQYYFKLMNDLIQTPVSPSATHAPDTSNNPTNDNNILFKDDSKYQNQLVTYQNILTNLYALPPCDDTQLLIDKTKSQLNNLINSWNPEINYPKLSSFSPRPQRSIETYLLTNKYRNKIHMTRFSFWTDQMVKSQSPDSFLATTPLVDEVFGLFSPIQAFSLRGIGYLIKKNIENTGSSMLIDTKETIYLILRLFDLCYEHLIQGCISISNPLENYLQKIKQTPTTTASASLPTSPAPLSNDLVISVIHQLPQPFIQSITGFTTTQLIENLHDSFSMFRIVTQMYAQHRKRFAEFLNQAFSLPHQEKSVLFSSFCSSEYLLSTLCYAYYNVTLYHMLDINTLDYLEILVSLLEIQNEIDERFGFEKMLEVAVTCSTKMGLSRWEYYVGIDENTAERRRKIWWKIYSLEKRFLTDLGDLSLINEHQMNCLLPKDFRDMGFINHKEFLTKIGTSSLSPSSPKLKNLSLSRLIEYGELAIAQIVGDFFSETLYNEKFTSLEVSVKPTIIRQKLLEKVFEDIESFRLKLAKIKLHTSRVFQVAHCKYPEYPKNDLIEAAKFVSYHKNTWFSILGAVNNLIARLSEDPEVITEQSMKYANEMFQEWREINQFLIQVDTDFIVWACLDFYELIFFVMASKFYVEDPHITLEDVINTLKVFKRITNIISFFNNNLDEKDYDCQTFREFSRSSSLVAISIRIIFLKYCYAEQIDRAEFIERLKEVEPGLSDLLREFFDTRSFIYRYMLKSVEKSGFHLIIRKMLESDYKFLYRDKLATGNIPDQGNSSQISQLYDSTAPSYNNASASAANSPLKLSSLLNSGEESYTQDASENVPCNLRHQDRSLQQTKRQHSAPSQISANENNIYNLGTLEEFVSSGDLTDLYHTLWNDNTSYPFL
In short: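 Full-length yeast transcription factors or their DNA-binding domains, GST-tagged and expressed with PURExpress, were applied at about 100-200 nM to universal all-10-mer Agilent arrays. These arrays had been made double-stranded by primer extension on fresh or once-stripped slides. Detection used fluorescent anti-GST, normalisation used masliner, and E-scores for ungapped eight-base words pooled with reverse complements came from the Universal PBM Analysis Suite.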

Sequence | PBM E-score
AGTAAACA | 0.015
GTCGTCTA | -0.0331
TCCCTCGA | 0.0376
CGAACGCG | 0.216
GCAACTAA | 0.183
CGTTTCGC | -0.0217
TTGATCAA | 0.13
ACGGACGA | 0.304
CAGTAACA | -0.14
CCAAGCCC | -0.152
GTTGCGGA | 0.236
TACAACCA | -0.00338
CTTTTATA | -0.314
ACGAATCC | 0.066
AGCTCTCC | 0.0331
CCGCAGTC | 0.116
CCTTACAG | -0.132
AGAGAGCC | -0.117
ATGTTTTA | -0.238
AGCATCTG | -0.112
TAACCTGA | -0.16
AGGGTTAT | -0.0536
CCATGAGA | 0.0687
GCTATGTA | -0.199
AATATGGC | -0.0504

Sequence | PBM E-score
AGTGCACA | 0.0276
CAAAATGC | -0.172
AGCCTGTC | -0.149
ATTCTACA | 0.0132
AGAGGGCC | -0.0343
AAATTGGG | -0.0338
TACTTAGA | -0.232
ACCAGGCA | -0.194
CTAACGCC | -0.0959
GTGGGATA | 0.141
ATCAGTGG | -0.204
ACATTGGG | -0.0825
CTGTGCCC | 0.0176
AGTGTTCA | 0.0286
GAGGAGAC | -0.0903
ACCCGTCC | 0.185
TCCTAGAA | -0.0812
ATAGGGCC | 0.0139
TCCGGGCA | 0.346
CCGAGTTC | 0.227
CCTCGATC | -0.0159
CGATACGC | 0.104
GAAACCAA | 0.0981
AAGCGCGC | 0.229
ACGTGCTG | -0.0058

Sequence | PBM E-score
AAACAGTA | -0.114
GCATATGA | 0.061
AATGGGCG | -0.0571
AAGAGTTA | -0.185
CGAGCCTA | -0.131
GTCACCAA | -0.307
AATGGGGA | -0.0935
TGGGGGAA | -0.273
CCACGGTA | 0.0861
ACGCGCTG | 0.0203
GACACAAC | -0.0892
AGCTCGTG | 0.218
GCCTCCAC | -0.207
ACCGATCC | 0.172
AAACGTTT | 0.00022
CTGCACGA | -0.124
CCTTTAGC | -0.181
CATACCGC | 0.055
CCCCTATA | -0.00636
AATACGCG | 0.0722
TATCATCA | 0.0384
ACTCGATA | 0.0433
CATCGAAA | -0.0314
AATGTCGG | 0.0623
AGAGCGCG | 0.0593

Sequence | PBM E-score
ATCTCAAC | 0.123
CCCTATTA | -0.101
ACAGGGTG | -0.287
CAGGCCAA | -0.043
CCAAAGCG | -0.003
ATATTGGG | 0.0357
AGTTAACT | 0.0558
CATGTCAA | -0.15
GAATCAGC | -0.124
AATGACCC | -0.14
CTACGTCA | -0.182
CACGTTAG | -0.205
CACCAATC | 0.0933
ACGAGTCT | -0.319
CTGGCAGA | -0.109
CCGTGTCG | 0.167
ACAGAGCC | -0.128
GTCAACTA | -0.0932
ACAGCGGT | -0.091
GGCGTTAA | -0.0748
ATCACGGA | 0.391
ACAATTCC | 0.171
ACAACGAA | 0.0353
CGCCGAAG | 0.178
ACCACTGG | -0.0338

Sequence | PBM E-score
GCCCAGGC | -0.138
ACTGCAAT | 0.0371
ACTCGCGA | 0.0895
GACGCGCC | 0.0769
AGCAGCAG | -0.0507
CGACCACA | -0.0427
CTACGGAG | 0.246
GCCAGACC | 0.018
AGGGCTTG | -0.149
CAAGCTAC | -0.157
CGGGATAG | 0.31
AGCTGGAG | -0.163
ATGCGCCC | 0.101
ATCGTTTA | -0.14
CGTTGGGA | -0.166
GACAGTAA | 0.08
TGAATAAA | -0.228
ATGAAGGG | -0.171
CTATCGTA | -0.164
CAATTTTC | 0.00449
AGATCCTC | -0.0114
ACCATGAG | -0.103
CAATGAAC | 0.00856
ACACCACG | -0.161
ATTATGGC | 0.104

Sequence | PBM E-score
CAAAATGA | -0.138
GTGGTATA | -0.0912
AACATAAT | 0.0967
CCTTATCC | 0.0832
CCCCCTGA | -0.33
ACGAGCAA | -0.179
AGGGGGCA | -0.102
CGATCCCA | 0.067
AAGAAACT | -0.115
ATCTGTTA | -0.0958
CAGCGTTA | -0.215
TAAATAAA | -0.153
CGGACTTA | 0.171
GACAGGTC | -0.108
GCAGGCGA | -0.14
CATCTACC | 0.0434
ATAGTGCG | 0.163
AACACGGA | 0.374
ACTAAGTA | -0.174
AAGGGCGC | -0.0433
CCGGCCAC | 0.271
AGGTATGC | -0.0624
AACTAGTG | -0.0901
CGTCCGAG | 0.273
CAATCCTA | -0.2

Sequence | PBM E-score
AGTCGGGG | 0.0779
AGACCTAG | -0.0267
CCCCTAGC | -0.241
GGCACGCA | 0.0129
ACAGTAAC | -0.0828
ACGCGGGG | 0.264
CACTGCTA | -0.211
CGACGAGC | -0.021
ACTGGGGC | -0.117
CCTTAAGC | -0.0555
TCGGAGAA | 0.225
AGGACATG | -0.15
TCGAGCAA | 0.0559
GGCTGACC | -0.112
ATAGGCGA | 0.0545
GATAACCA | 0.0306
AACAATCG | -0.0331
CGGTCTAC | 0.00094
CGTTAGTA | 0.102
AGATTGTC | 0.0868
GGAGTCAA | 0.0244
ACCAGAGA | -0.103
